According to PubChem BioAssay AID1347430 (National Center for Advancing Translational Sciences (NCATS), 2020):
Hit rate of the full screen: of about 91,000 compounds, about 130 (0.14%) were called active. Inconclusive results, whose numbers are uncertain, are shown with a selection of clear calls. Calls follow the shape of the dose curve; as a rule, active = well fitted inhibition curve with a large enough effect; inconclusive = small, poorly fitted or top-dose-only effect; inactive = flat fitted curve, though single readings scatter. A potency beside an inconclusive call is a rough fit, not a confirmed value. A structure can be active in one record and inactive in another.

tested on: Uracil-DNA glycosylase; test: Primary qHTS assay for inhibitors of Activation Induced Cytidine Deaminase (AID): UDG Counterscreen signal; conditions: FRET deamination/UDG coupled assay, UDG read, 4 h; series mostly up to 115 µM; also: nearly all actives have a fitted effect of over 65% in size
Potency is read from the fitted curve at half-maximal effect; tags tell the direction and shape of the fitted curve.

Structure (SMILES) | Potency
CCOc1ccc(-c2nc(C#N)c(N3CCN(C)CC3)o2)cc1 | inconclusive: 70.8 µM [inhibitor, single point]
O=c1c2ccccc2nc(/C=C/c2cccc3ccccc23)n1-c1ccc(F)cc1F | inconclusive: 89.1 µM [inhibitor, partial curve, poor fit]
Cc1ccsc1CCN1C(=O)N(c2ccccc2)C(=O)C1CC(=O)Nc1ccc(Cl)cc1 (stereo unspecified) | inconclusive: 100 µM [inhibitor, single point]
Cc1ccccc1CN1CCC(N(C)Cc2ccccc2)CC1 | inconclusive: 89.1 µM [inhibitor, single point]
CCN(CC)C(=O)c1sc2c(c1C)c(=O)n(-c1ccc(C)c(C)c1)c(=O)n2Cc1cc(=O)n2ccccc2n1 | inactive
Cc1ccc2sc(N(Cc3cccnc3)C(=O)CCS(=O)(=O)c3ccccc3)nc2c1C | inconclusive: 89.1 µM [inhibitor, single point]
Cc1cc(C)cc(OCCSc2nc3ccc(NC(=O)c4cccs4)cc3s2)c1 | inconclusive: 89.1 µM [inhibitor, single point]
COc1ccc2c(C)c(CC(=O)NCCc3ccc(Cl)cc3)c(=O)oc2c1C | inconclusive: 89.1 µM [inhibitor, single point]
Cc1nn(C)c2c1c(C(F)(F)F)cc(=O)n2CC(=O)NCc1ccc(OC(C)C)cc1 | inconclusive: 89.1 µM [inhibitor, single point]
CCC(C)c1ccc(OCC(=O)Nc2cccc3ccc(C)nc23)cc1 (stereo unspecified) | inconclusive: 89.1 µM [inhibitor, single point]
CC(C)c1ccc(C2Sc3ccccc3NC3=C2C(=O)c2ccccc23)cc1 (stereo unspecified) | inconclusive: 50.1 µM [inhibitor, partial curve, poor fit]
CCc1ccc(NC(=O)C2CCN(c3nn4cc(-c5ccc(OC)cc5)nc4s3)CC2)cc1 | inconclusive: 89.1 µM [inhibitor, single point]
O=C1CCC(C(=O)OC2CCOC2=O)=NN1 (stereo unspecified) | inactive
CCc1ccc(NC(=O)CCn2c(-c3ccc(OC)cc3)cc(C(C)=O)c2C)cc1 | inconclusive: 89.1 µM [inhibitor, single point]
CC1CCN(c2nc3c(S(=O)(=O)c4ccccc4)nnn3c3ccc(Cl)cc23)CC1 | inactive
Cc1c(C)n(Cc2ccccc2)c2ccc(C(=O)NCc3ccccc3F)cc12 | inconclusive: 89.1 µM [inhibitor, single point]
COc1ccccc1C(=O)Nc1ccc2nc(N3CCC(C)CC3)cc(C)c2c1 | inactive
Cc1cccc(C)c1OCCCCn1c(C2CC(=O)N(c3ccc(F)cc3)C2)nc2ccccc21 (stereo unspecified) | active: 79.4 µM
Cc1cccc(-n2c(=O)c3c(c4cc(C)ccc4n3C)n(CC(=O)Nc3ccccc3C(F)(F)F)c2=O)c1 | inconclusive: 89.1 µM [inhibitor, partial curve, poor fit]
CCc1cccc2sc(N3CCN(C(=O)C4CC4)CC3)nc12 | inactive
COc1cccc2cc(/C=C(/C#N)c3nc4ccccc4[nH]3)oc12 | inactive
Cc1cccc(N2CCN(C(=O)c3ccc4c(c3)c(C)c(C)n4C)CC2)c1C | inactive

Structure (SMILES) | Potency
Cc1ccc2c(n1)sc1c(=O)n(-c3cccc(C(F)(F)F)c3)nnc12 | inconclusive: 10 µM [inhibitor, partial curve, poor fit]
CN(C(=O)CSc1nnc(-c2ccc([N+](=O)[O-])cc2)o1)C1CCCCC1 | inconclusive: 89.1 µM [inhibitor, single point]
N#Cc1cccc(Oc2ccc(C3CCCCC3)cc2)c1C#N | inactive
COc1ccc(C)c2sc(N(Cc3cccnc3)C(=O)C3=COCCO3)nc12 | inconclusive: 89.1 µM [inhibitor, single point]
Cc1ccccc1C(=O)NC1(C(F)(F)F)N=C(c2ccccc2)N(Cc2ccco2)C1=O (stereo unspecified) | inactive
Clc1cccc(-n2ncc3c(NCCc4ccccc4)ncnc32)c1 | active: 89.1 µM
Cc1cccc(NC(=O)c2c(NC(=O)c3cccs3)sc3c2CCC(C)C3)c1 (stereo unspecified) | inconclusive: 89.1 µM [inhibitor, partial curve, poor fit]
COc1cccc(CN2CCc3nc(Nc4ccc5c(c4)OCCO5)ncc3C2)c1OC | inconclusive: 79.4 µM [inhibitor, partial curve]
CCc1ccc(C2=C(C)C(N3CCC(C(=O)Nc4cccc(OC)c4)CC3)=NS2(=O)=O)cc1 | inconclusive: 79.4 µM [inhibitor, partial curve, poor fit]
O=C(O)CCNC(=O)C(F)(F)C(F)(F)C(F)(F)C(F)(F)C(F)(F)C(F)(F)F | inactive
Cc1ccc(NC(=O)CSc2nnc(Cc3ccccc3)o2)cc1Cl | inconclusive: 70.8 µM [inhibitor, partial curve, poor fit]
Cc1ccc(Cl)cc1NC(=O)c1ccc(NC(=O)N2CCSc3ncccc32)cc1 | inconclusive: 100 µM [inhibitor, single point]
CC(/C=C/c1ccccc1)=N/Nc1ccc([N+](=O)[O-])cc1 | inactive
Cn1c(SCC(=O)Nc2sccc2C#N)nnc1-c1ccc(Cl)cc1 | inactive
COCCCNC(=O)c1ccc2c(c1)nc1n2CCCCC1 | inconclusive: 89.1 µM [inhibitor, single point]
COc1ccc(Nc2cc(C(=O)NCCCN(C)Cc3ccccc3)c3ccccc3n2)c(OC)c1 | inconclusive: 31.6 µM [inhibitor, partial curve, poor fit]
COc1ccccc1NC(=O)N1CCN(c2nnc(C)c3c(C)n(-c4ccc(Cl)cc4)nc23)CC1 | inconclusive: 89.1 µM [inhibitor, partial curve, poor fit]
COc1cccc(-c2cc(C(=O)NCc3ccccc3)no2)c1 | inactive
COc1ccccc1Cc1nc2ccccc2nc1SCC(=O)N1CCCCC1 | active: 89.1 µM
N#Cc1c(-c2ccccc2)cc(-c2ccccc2)nc1SCC(O)CS(=O)(=O)Cc1ccccc1 (stereo unspecified) | inconclusive: 79.4 µM [inhibitor, partial curve, poor fit]
COc1ccc(C(=O)c2sc(Nc3ccc(C(C)C)cc3)nc2N)c(OC)c1OC | inconclusive: 89.1 µM [inhibitor, single point]
COc1ccc(NC(=O)Cn2cc(S(=O)(=O)N3CCC(C)CC3)c3ccccc3c2=O)cc1Cl | inconclusive: 15.8 µM [inhibitor, partial curve, poor fit]

Structure (SMILES) | Potency
CC(=O)N1CCc2c(sc3c2c(=O)n(-c2cccc(Cl)c2C)c(=O)n3Cc2ccccc2C)C1 | inconclusive: 89.1 µM [inhibitor, single point]
CC(NC(=O)Cn1c(=O)c2c(ncn2C)n(C)c1=O)c1ccc(Cl)c(Cl)c1 (stereo unspecified) | inactive
COc1ccc(C(=O)Nc2ccc(NC(=O)c3cccs3)cc2)cc1OC | inactive
Cc1cccc(C(=O)NCC(c2cccs2)S(=O)(=O)c2cccs2)c1 (stereo unspecified) | inconclusive: 89.1 µM [inhibitor, partial curve, poor fit]
CCn1c(-n2nc(C)c(C)c2C)nc2c1c(=O)n(Cc1c(F)cccc1Cl)c(=O)n2C | inactive
CC(C)CCn1c(=O)c2cccnc2n(CC(=O)Nc2ccccc2)c1=O | inconclusive: 100 µM [inhibitor, single point]
Cc1cc(C)cc(OCC(=O)Nc2nonc2-c2ccc(Br)cc2)c1 | inconclusive: 39.8 µM [inhibitor, partial curve, poor fit]
Cc1cccc(N2CCN(C(=O)c3ccc4nc(N5CCC(C)CC5)sc4c3)CC2)c1C | inconclusive: 79.4 µM [inhibitor, partial curve, poor fit]
CCc1nnc(SCc2nc(-c3ccccc3Cl)oc2C)c2cc3sc(C)cc3n12 | inconclusive: 31.6 µM [inhibitor, partial curve, poor fit]
COc1ccc2[nH]cc(CCNC(=O)Nc3ccccc3)c2c1 | inactive
O=C(c1ccc2c(Cl)c3c(nc2c1)CCCC3)N1CCN(c2ccc(Cl)cc2)CC1 | inactive
CC(=O)N1CCCC1c1nc2ccccc2n1Cc1ccccc1Cl (stereo unspecified) | inconclusive: 89.1 µM [inhibitor, single point]
Cc1nnc(N2CCN(C(=O)NCCC(C)C)CC2)c2nn(-c3ccc(Cl)cc3)c(C)c12 | inconclusive: 100 µM [inhibitor, single point]
CCCCN(C)CC(O)Cn1cc(/C=C/C(=O)c2ccc(Br)cc2)c2ccccc21 (stereo unspecified) | inactive
COc1cc(OC)c(NC(=O)NC(C(=O)N2CCc3ccccc32)C(C)C)cc1Cl (stereo unspecified) | inconclusive: 89.1 µM [inhibitor, partial curve, poor fit]
O=c1[nH]c(SCc2c(F)cccc2Cl)nc2c1CCC2 | inconclusive: 56.2 µM [inhibitor, partial curve, poor fit]
Cc1cc(Cl)cc(Cl)c1OCC(=O)Nc1cccc(NC(=O)c2ccco2)c1 | inconclusive: 89.1 µM [inhibitor, single point]
Cc1cc(C)c(S(=O)(=O)N2CCC(C(=O)NCCc3csc(-c4ccccc4)n3)CC2)c(C)c1 | inconclusive: 89.1 µM [inhibitor, single point]
Cc1cccc(C(=O)NNC(=S)NC(=O)c2ccc(C(C)(C)C)cc2)c1 | inactive
Cc1ccc(C(=O)/C=C/Nc2ccc(N(C)C)cc2)cc1C | inactive
Cc1ccc(NC(=O)CSc2nnc3scc(-c4ccc(Cl)cc4)n23)cc1 | inconclusive: 100 µM [inhibitor, single point]
Cc1cc(C)cc(NC(=O)NCCc2c(C)nn(C)c2C)c1 | inconclusive: 89.1 µM [inhibitor, single point]
